# Results taken from the supplement of paper PMC8728848.
# This is one part of the list.
# B1: PX14343B-bfa-546-20-546 (Bacteroides fragilis) (protein)
# chain: CDLERYPLTDLSEETFWNSESNAELALTSLYRGSLTDGVEYNPSDWWSYHGMIMMEHLSDNAFDRRGENNPFFKISSGNLTADNAFIKRYWETSYKRIGYCNRFLVGIQNSSESEKKTRMIAEARFLRATQYFYLASYFKNVPLVENVLTGEEANNVTKTSQADILKWCVTEFTAAAADLPRFSAIPAGEAGRACKQAALAFLGRTCMLQKDWKSGAKAFHDIMELGDNAINANYQELFYPSTGTSNKENIFYIQYLENYLGTGLPQHALSAKDGGWSLVNPAADLYESYEFKDGTPFSYDDPRYDPSNLGKDRDPRLDYTIYYNGAIFMGTEYKMSPDYSAAKKEKLDYTSEASRTGFMMRKYFEESTPINDVQSANGLTPVIRYAEVLLGYLECLVEDNQTITQGILDETINAVRGRASVNMPPVTEVTPAKLREIVRHERRIELAMEGIRYWDIMRWGIAHEVLSQKIWGAPYPGSTQYATTTKEVDPTGNYRWYVGKRAFRNPTDYTWPIPQSEQNINPNLRD
# What was measured:
# Experiment in all cases: glycan array binding signal (z-score within array); higher = stronger binding
# Details in all cases: glycan notation: IUPAC condensed, linker removed
# [1] = target: Neu5Ac(a2-3)Gal(b1-3)[Fuc(a1-4)]GlcNAc
# In short: (§1)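 Columns mapping to the same glycan were averaged after glycan names were converted to IUPAC-condensed notation. The data come from 3228 arrays in the Consortium for Functional Glycomics database, limited to those with an available protein sequence. Binding is reported as a within-array Z-score averaged across arrays of one protein sequence and across linkers.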
# [2] = target: Neu5Ac(a2-3)Gal(b1-3)[Fuc(a1-4)]GlcNAc(b1-3)Gal(b1-3)[Fuc(a1-4)]GlcNAc
# In short: as §1
# [3] = target: Neu5Ac(a2-3)Gal(b1-3)[Fuc(a1-4)]GlcNAc(b1-3)Gal(b1-4)[Fuc(a1-3)]GlcNAc
# In short: as §1
# [4] = target: Neu5Ac(a2-3)Gal(b1-3)[GlcNAc(b1-6)]GalNAc
# In short: as §1
# [5] = target: Neu5Ac(a2-3)Gal(b1-3)[Neu5Ac(a2-6)]GalNAc
# In short: as §1
# [6] = target: Neu5Ac(a2-3)Gal(b1-3)[Neu5Ac(a2-6)]GlcNAc(b1-3)[Fuc(a1-3)[Gal(b1-4)]GlcNAc(b1-6)]Gal(b1-4)Glc
# In short: as §1
# [7] = target: Neu5Ac(a2-3)Gal(b1-3)]Neu5Ac(a2-3)Gal(b1-4)]GlcNAc
# In short: as §1
# Neu5Ac(a2-3)Gal(b1-4)Glc = target: Neu5Ac(a2-3)Gal(b1-4)Glc
# In short: as §1
# [8] = target: Neu5Ac(a2-3)Gal(b1-4)GlcNAc
# In short: as §1
# [9] = target: Neu5Ac(a2-3)Gal(b1-4)GlcNAc(b1-2)Man
# In short: as §1
# [10] = target: Neu5Ac(a2-3)Gal(b1-4)GlcNAc(b1-2)Man(a1-3)[GlcNAc(b1-4)][Neu5Ac(a2-3)Gal(b1-4)GlcNAc(b1-2)Man(a1-6)]Man(b1-4)GlcNAc(b1-4)GlcNAc
# In short: as §1
# [11] = target: Neu5Ac(a2-3)Gal(b1-4)GlcNAc(b1-2)Man(a1-3)[Neu5Ac(a2-3)Gal(b1-4)GlcNAc(b1-2)Man(a1-6)]Man(b1-4)GlcNAc(b1-4)GlcNAc
# In short: as §1
# [12] = target: Neu5Ac(a2-3)Gal(b1-4)GlcNAc(b1-2)Man(a1-3)[Neu5Ac(a2-3)Gal(b1-4)GlcNAc(b1-2)Man(a1-6)]Man(b1-4)GlcNAc(b1-4)[Fuc(a1-6)]GlcNAc
# In short: as §1
# [13] = target: Neu5Ac(a2-3)Gal(b1-4)GlcNAc(b1-2)Man(a1-3)[Neu5Ac(a2-6)Gal(b1-4)GlcNAc(b1-2)Man(a1-6)]Man(b1-4)GlcNAc(b1-4)GlcNAc
# In short: as §1
# [14] = target: Neu5Ac(a2-3)Gal(b1-4)GlcNAc(b1-2)[Neu5Ac(a2-3)Gal(b1-4)GlcNAc(b1-4)]Man(a1-3)[GlcNAc(b1-4)][Neu5Ac(a2-3)Gal(b1-4)GlcNAc(b1-2)[Neu5Ac(a2-3)Gal(b1-4)GlcNAc(b1-6)]Man(a1-6)]Man(b1-4)GlcNAc(b1-4)GlcNAc
# In short: as §1
# [15] = target: Neu5Ac(a2-3)Gal(b1-4)GlcNAc(b1-2)[Neu5Ac(a2-3)Gal(b1-4)GlcNAc(b1-4)]Man(a1-3)[GlcNAc(b1-4)][Neu5Ac(a2-3)Gal(b1-4)GlcNAc(b1-4)Man(a1-6)]Man(b1-4)GlcNAc(b1-4)GlcNAc
# In short: as §1
# [16] = target: Neu5Ac(a2-3)Gal(b1-4)GlcNAc(b1-2)[Neu5Ac(a2-3)Gal(b1-4)GlcNAc(b1-6)]Man(a1-6)[Neu5Ac(a2-3)Gal(b1-4)GlcNAc(b1-2)Man(a1-3)]Man(b1-4)GlcNAc(b1-4)GlcNAc
# In short: as §1
# [17] = target: Neu5Ac(a2-3)Gal(b1-4)GlcNAc(b1-2)[Neu5Ac(a2-3)Gal(b1-4)GlcNAc(b1-6)]Man(a1-6)[Neu5Ac(a2-3)Gal(b1-4)GlcNAc(b1-2)Man(a1-3)][GlcNAc(b1-4)]Man(b1-4)GlcNAc(b1-4)GlcNAc
# In short: as §1
# [18] = target: Neu5Ac(a2-3)Gal(b1-4)GlcNAc(b1-3)Gal
# In short: as §1
# [19] = target: Neu5Ac(a2-3)Gal(b1-4)GlcNAc(b1-3)Gal(b1-3)GlcNAc
# In short: as §1
# [20] = target: Neu5Ac(a2-3)Gal(b1-4)GlcNAc(b1-3)Gal(b1-4)GlcNAc
# In short: as §1
# [21] = target: Neu5Ac(a2-3)Gal(b1-4)GlcNAc(b1-3)Gal(b1-4)GlcNAc(b1-2)Man(a1-3)[Neu5Ac(a2-3)Gal(b1-4)GlcNAc(b1-3)Gal(b1-4)GlcNAc(b1-2)Man(a1-6)]Man(b1-4)GlcNAc(b1-4)GlcNAc
# In short: as §1
# [22] = target: Neu5Ac(a2-3)Gal(b1-4)GlcNAc(b1-3)Gal(b1-4)GlcNAc(b1-3)Gal(b1-4)GlcNAc
# In short: as §1
# [23] = target: Neu5Ac(a2-3)Gal(b1-4)GlcNAc(b1-3)Gal(b1-4)GlcNAc(b1-3)Gal(b1-4)GlcNAc(b1-2)Man(a1-3)[Neu5Ac(a2-3)Gal(b1-4)GlcNAc(b1-3)Gal(b1-4)GlcNAc(b1-3)Gal(b1-4)GlcNAc(b1-2)Man(a1-6)]GalNAc
# In short: as §1
# [24] = target: Neu5Ac(a2-3)Gal(b1-4)GlcNAc(b1-3)Gal(b1-4)GlcNAc(b1-3)GalNAc
# In short: as §1
# [25] = target: Neu5Ac(a2-3)Gal(b1-4)GlcNAc(b1-3)Gal(b1-4)GlcNAc(b1-3)[Neu5Ac(a2-3)Gal(b1-4)GlcNAc(b1-3)Gal(b1-4)GlcNAc(b1-6)]GalNAc
# In short: as §1
# [26] = target: Neu5Ac(a2-3)Gal(b1-4)GlcNAc(b1-3)Gal(b1-4)GlcNAc(b1-6)[Gal(b1-3)]GalNAc
# In short: as §1
# [27] = target: Neu5Ac(a2-3)Gal(b1-4)GlcNAc(b1-3)Gal(b1-4)[Fuc(a1-3)]GlcNAc
# In short: as §1
# [28] = target: Neu5Ac(a2-3)Gal(b1-4)GlcNAc(b1-3)GalNAc
# In short: as §1
# [29] = target: Neu5Ac(a2-3)Gal(b1-4)GlcNAc(b1-3)[Neu5Ac(a2-3)Gal(b1-4)GlcNAc(b1-6)]GalNAc
# In short: as §1
binder,measurement,setting,value
B1,glycan array binding signal (z-score),[1],-0.107
same,glycan array binding signal (z-score),[2],-0.107
same,glycan array binding signal (z-score),[3],-0.12
same,glycan array binding signal (z-score),[4],-0.111
same,glycan array binding signal (z-score),[5],-0.125
same,glycan array binding signal (z-score),[6],-0.121
same,glycan array binding signal (z-score),[7],-0.115
same,glycan array binding signal (z-score),Neu5Ac(a2-3)Gal(b1-4)Glc,-0.114
same,glycan array binding signal (z-score),[8],-0.121
same,glycan array binding signal (z-score),[9],-0.09
same,glycan array binding signal (z-score),[10],-0.126
same,glycan array binding signal (z-score),[11],-0.132
same,glycan array binding signal (z-score),[12],-0.125
same,glycan array binding signal (z-score),[13],-0.112
same,glycan array binding signal (z-score),[14],-0.129
same,glycan array binding signal (z-score),[15],-0.105
same,glycan array binding signal (z-score),[16],-0.116
same,glycan array binding signal (z-score),[17],-0.118
same,glycan array binding signal (z-score),[18],-0.133
same,glycan array binding signal (z-score),[19],-0.13
same,glycan array binding signal (z-score),[20],-0.126
same,glycan array binding signal (z-score),[21],-0.118
same,glycan array binding signal (z-score),[22],-0.128
same,glycan array binding signal (z-score),[23],-0.1
same,glycan array binding signal (z-score),[24],-0.127
same,glycan array binding signal (z-score),[25],-0.116
same,glycan array binding signal (z-score),[26],-0.118
same,glycan array binding signal (z-score),[27],-0.127
same,glycan array binding signal (z-score),[28],-0.12
same,glycan array binding signal (z-score),[29],-0.119
